Measurements reported in paper PMC4336329 (PLoS ONE, 2015).
About 2,200 (0.71%) of roughly 310,000 compounds showed an effect of 50% or more. The effect is printed as a negative number. The list shows a part of the results.

Target: human ether-à-go-go-related gene (hERG) potassium channel (human, UniProt Q12809)
Assay: primary screen, population patch clamp on CHO cells stably expressing hERG

human ether-à-go-go-related gene (hERG) potassium channel, sequence (Q12809 whole entry, looked up): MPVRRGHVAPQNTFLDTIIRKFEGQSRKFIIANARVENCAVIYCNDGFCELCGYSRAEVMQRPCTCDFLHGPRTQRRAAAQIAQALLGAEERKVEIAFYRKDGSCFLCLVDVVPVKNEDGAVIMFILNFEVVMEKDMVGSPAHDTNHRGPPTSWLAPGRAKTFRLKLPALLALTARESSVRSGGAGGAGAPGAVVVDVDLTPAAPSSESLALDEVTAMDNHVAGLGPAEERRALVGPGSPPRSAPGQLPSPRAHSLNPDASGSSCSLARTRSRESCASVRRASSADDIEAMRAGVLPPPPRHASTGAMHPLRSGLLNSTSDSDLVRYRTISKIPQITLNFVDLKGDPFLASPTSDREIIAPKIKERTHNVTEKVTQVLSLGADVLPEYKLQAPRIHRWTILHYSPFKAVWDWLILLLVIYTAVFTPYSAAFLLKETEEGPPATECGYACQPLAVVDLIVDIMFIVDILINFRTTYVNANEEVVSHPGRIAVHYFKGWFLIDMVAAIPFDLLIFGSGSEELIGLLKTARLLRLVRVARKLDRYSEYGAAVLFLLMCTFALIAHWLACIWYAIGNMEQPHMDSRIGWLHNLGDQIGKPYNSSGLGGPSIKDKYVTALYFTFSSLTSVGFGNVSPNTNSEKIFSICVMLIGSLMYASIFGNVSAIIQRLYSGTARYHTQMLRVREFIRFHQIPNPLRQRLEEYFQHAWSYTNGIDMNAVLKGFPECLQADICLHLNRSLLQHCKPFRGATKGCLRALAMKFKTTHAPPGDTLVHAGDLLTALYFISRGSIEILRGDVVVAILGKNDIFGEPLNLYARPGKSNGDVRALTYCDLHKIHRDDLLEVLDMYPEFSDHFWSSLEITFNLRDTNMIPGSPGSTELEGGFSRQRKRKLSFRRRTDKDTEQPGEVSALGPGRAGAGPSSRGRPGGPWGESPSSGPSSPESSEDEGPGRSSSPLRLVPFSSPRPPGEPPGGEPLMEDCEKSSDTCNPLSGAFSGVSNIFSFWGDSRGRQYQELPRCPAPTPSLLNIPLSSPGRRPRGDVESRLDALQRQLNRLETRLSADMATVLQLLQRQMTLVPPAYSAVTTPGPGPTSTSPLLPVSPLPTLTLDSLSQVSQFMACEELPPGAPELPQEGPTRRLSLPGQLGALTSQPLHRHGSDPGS

Row | Compound | hERG current change (%, negative = inhibition) at 1uM [%]
1 | COC(=O)c1c(N)c(C#N)c2n1CCCCC2 | 6.54
2 | Cc1ccc(/C=N/N=C2\SCC(=O)N2CC2CC2)cc1 | 10.4
3 | COc1ccc(OC)c(NC(=O)Nc2c(O)ccc3ccccc23)c1 | 5.38
4 | CCOC(=O)c1csc(-c2snnc2C)n1 | 10.4
5 | CCc1nn(CC(=O)NCc2cccnc2)c(=O)c2cc3occc3n12 | -0.822
6 | CN1N=C2c3ccccc3CCCC2C1c1ccc(F)cc1 (stereo not drawn) | 13.3
7 | CCCn1c2ccccc2c2cnn(CC(=O)NC3CCN(Cc4ccccc4)CC3)c(=O)c21 | -2.53
8 | Cc1cc(Br)ccc1NC(=S)NCCc1ccccc1 | 14.7
9 | Cc1ccc(N=Cc2cc3c(cc2O)OC(N)=C(C#N)C3c2ccccc2)cc1 (stereo not drawn) | 4.26
10 | Cc1ccc(CSCCNS(=O)(=O)c2ccccc2)cc1 | 1.55
11 | CCOC(=O)C(Cc1ccccc1)NC(=O)CCc1c(C)nc2ncnn2c1C (stereo not drawn) | 8.53
12 | CN(CCc1ccccn1)C(=O)CCC1CCCN(C(=O)CN2CCCCCC2)C1 (stereo not drawn) | 10
13 | OCC#CCSc1nnc(-c2ccccc2Br)o1 | 10.7
14 | CCOC(=O)N1CCN(C(=S)NC(=O)/C=C/c2ccc(C)cc2)CC1 | 17.3
15 | COc1ccc(OC)c(NC(=O)NCCN2CCN(c3ccccc3)CC2)c1 | 8.91
16 | O=C1CSC(=S)N1c1cccc(O)c1 | 12.3
17 | O=C(c1cccs1)N1CCN(c2ccc(F)cc2)CC1 | -2.86
18 | O=C(c1ccccc1)N1CCC(c2nc(-c3ccc(S(=O)(=O)NCC4CCCO4)cc3)no2)CC1 (stereo not drawn) | 7.92
19 | Cc1cc(Cl)c2oc(C(=O)NC(C)c3ccncn3)c(C)c2c1 (stereo not drawn) | 9.96
20 | CCOC(=O)N1CCN(C(=O)CN(c2ccc(OCC)cc2)S(C)(=O)=O)CC1 | -12.4
21 | COc1ccc(Oc2ccccc2C#N)cc1 | 5.57
22 | COc1ccc2c(c1OC)C(=O)N(c1cccc(NC(C)=O)c1)C2 | 12.4

Row | Compound | hERG current change (%, negative = inhibition) at 1uM [%]
23 | COCC(=O)Nc1c(I)c(C(=O)NCC(O)CO)c(I)c(C(=O)N(C)CC(O)CO)c1I (stereo not drawn) | 16.5
24 | NC(=O)CN1CCN(c2ccccc2F)CC1 | 5.76
25 | Cc1cccc(OCC(=O)N(Cc2nnc(-c3ccccc3Cl)o2)C2CC2)c1 | 4.44
26 | O=C1CC(N2CCN(c3ccccc3)CC2)C(=O)N1c1ccc2c(c1)OCO2 (stereo not drawn) | 20
27 | Cc1cccc(NC(=O)CNC(=O)CCNC(=O)c2ccc(C(C)(C)C)cc2)c1C | 5.45
28 | CC(C)(C)c1ccc(OCC(=O)Nc2ccc(-c3nc4cccnc4o3)cc2)cc1 | 5.33
29 | O=C(NCc1ccccc1F)c1cccc(S(=O)(=O)NCc2ccccc2)c1 | 7.27
30 | O=C(NC1=NCCS1)c1ccccc1Cl | 15.3
31 | N=C1/C(=C/c2ccc(-c3cccc(C(=O)O)c3)o2)C(=O)N=C2SC=C(c3ccccc3)N12 | 13.2
32 | Cc1nn(-c2ccccc2)c(C)c1/C=N/NC(=O)CSc1nnc(SCc2cccc3ccccc23)s1 | 5.62
33 | CCc1ccc(CN2CCN(C(=O)c3cccc(OC)c3OC)CC2)cc1.O=C(O)C(=O)O | -0.969
34 | Cc1ccc(CNC(=O)Cc2nc3nc(C)cc(C)n3n2)cc1 | 7.83
35 | CCC1(c2ccc(Cl)cc2)NC(=S)N(c2ccccc2)N1 (stereo not drawn) | 15.8
36 | COc1ccc(/C=N/NC(=O)c2ccc3nc[nH]c3c2)c(OC)c1 | 21.5
37 | O=C(NCc1cccnc1)c1cc(S(=O)(=O)N2CCCCC2)ccc1Cl | 10.9
38 | O=C(NCC(c1ccco1)N1CCCC1)c1cc2cc(Cl)ccc2o1 (stereo not drawn) | -3.88
39 | Cc1ccc(S(=O)(=O)CCC(=O)NCc2ccc(Cl)cc2)cc1 | 12.8
40 | CCCC(=O)Nc1cccc(C(=O)Nc2nccs2)c1 | 9.96
41 | COc1cc([N+](=O)[O-])ccc1Nc1nc(C)cc(C)n1.Cl | 15.4
42 | Cc1ccc2c(c1)c(N=NC(N)=O)c(O)n2C | 14.2
43 | Cn1nc(CC(=O)NCc2ccc(F)cc2)c2ccccc2c1=O | 0.499
44 | CC(=O)C1=C(O)C(=O)N(c2ccccn2)C1c1ccc(C)cc1 (stereo not drawn) | 10.5

Row | Compound | hERG current change (%, negative = inhibition) at 1uM [%]
45 | O=C(c1ccc(Cl)cc1)C1CCN(C(=O)C2CC2)CC1 | -3.66
46 | CCn1cc(S(=O)(=O)c2ccc(C)cc2)c(=O)c2cc(F)c(N3CCN(C)CC3)cc21 | 2.95
47 | Cc1ccc(C(=O)NN2C(=O)C3C4C=CC(C4)[C@@H]3C2=O)cc1 (stereo partly drawn) | 3.83
48 | CCCCn1c(C)c(C(=O)OCC)c2c(CN3CCOCC3)c(O)ccc21 | -14.1
49 | CC12CCC(=O)N1C(C(=O)OCc1c(Cl)cccc1Cl)CS2 (stereo not drawn) | 8.54
50 | O=C(NC(=S)Nc1ccccc1Br)c1ccco1 | 15.4
51 | O=C(CSc1n[nH]c(-c2ccncc2)n1)Nc1ccc(Cl)c(C(=O)O)c1 | 15.8
52 | COc1cccc(CNC(=O)N2CCN(S(=O)(=O)c3ccc(Cl)cc3)CC2)c1 | 9.67
53 | COc1ccc(S(=O)(=O)NC2CCCCCC2)cc1C(N)=O | 9.49
54 | CCOC(=O)c1cn(Cc2ccccc2)nc1-c1ccccc1 | 14.5
55 | Brc1ccc2nc(CSc3ncn[nH]3)cn2c1 | 11.4
56 | Cc1ccc(OCC(=O)N2CCN(S(=O)(=O)c3ccccc3)CC2)c([N+](=O)[O-])n1 | -12.4
57 | Cc1ccc2c(c1)N(CC(=O)N(Cc1ccc3c(c1)OCO3)CC1CCCO1)C(=O)C(C)O2 (stereo not drawn) | -4.02
58 | COc1ccc(NS(=O)(=O)c2cccc(C(=O)N/N=C/c3cn(-c4ccccc4)nc3-c3ccc(OC)cc3)c2)cc1 | 7.24
59 | O=C(O)C(=O)O.Oc1ccccc1CN(CCc1ccccc1)Cc1ccccc1 | 14.4
60 | CC(c1ccon1)N(C)Cc1c(C(=O)N(C)Cc2ccccc2)nc2ccccn12 (stereo not drawn) | 8.53
61 | COc1ccc(COC(=O)c2ccc3c(=O)n4c(nc3c2)CCC4)cc1F | -0.857
62 | CCOC(=O)CN(C(=O)CNC(=O)c1ccco1)C(C(=O)NC1CCCCC1)c1cccs1 (stereo not drawn) | 11.8
63 | O=C(Nc1ccc(Cl)cn1)c1cccc(OCc2ccccc2)c1 | -3
64 | Cc1ccc(CNC(=S)Nc2ccc(NS(=O)(=O)c3ccc(C)cc3)cc2)cc1 | -14.8
65 | Cc1ccc(S(=O)(=O)Nc2cccc3ncccc23)cc1 | 6.95
66 | COCCNC(=O)c1c(C)cc(C)cc1C | 11.8

Row | Compound | hERG current change (%, negative = inhibition) at 1uM [%]
67 | O=C(O)CCCNC(=O)/C(=C\c1ccc(Cl)cc1)NC(=O)c1ccc(Br)cc1 | 5.19
68 | CC1=CC(C)(C)N2C(=O)C3(C(C#N)=C(N)Oc4cc(C)oc(=O)c43)c3cc(C)cc1c32 (stereo not drawn) | -3.49
69 | CC1(C(=O)N(CC(=O)NC2CCCC2)Cc2ccc(Cl)cc2)CC(=O)N=C2C=CC=CN21 (stereo not drawn) | 5.14
70 | CC(OC(=O)c1ccc(Cl)c(S(=O)(=O)Nc2ccc(F)cc2)c1)C(=O)NC(N)=O (stereo not drawn) | 1.75
71 | CN1CCN(C(=O)Cc2nc3ccccc3[nH]2)CC1 | -0.431
72 | COc1cc(-c2[nH]ncc2CN2CCN(c3cccc(C)n3)CC2)cc(OC)c1OC | -22.7
73 | COc1ccc(-n2ncc3c2CC(C)(C)CC3NC(=O)Cc2nonc2C)cc1 (stereo not drawn) | 9.99
74 | CN(CCCNC(=O)Cn1cc2c(n1)CCCC2)C1CCCCC1 | -6.24
75 | CCOc1ccc(N(CC(=O)NCc2ccccc2Cl)S(=O)(=O)c2c(C)noc2C)cc1 | 18.9
76 | COC(=O)C1=C(C)NC(=O)C1(NS(=O)(=O)c1ccc(C)cc1)C(F)(F)F (stereo not drawn) | 10
77 | O=C(CSc1ccccc1)Nc1nnc(/C=C/c2ccccc2)s1 | -0.537
78 | COc1cc2c(cc1OC)C(c1cc3cc4c(cc3[nH]c1=O)OCO4)N(C(=O)C1CC1)CC2 (stereo not drawn) | 4.07
79 | COC(=O)c1cccc(C23CC4(C2)[C@H](CN(Cc2ccc(C(F)(F)F)cc2)[C@@H]4c2ccccc2)C3c2ccc(Cl)nc2)c1 (stereo partly drawn) | 7.12
80 | Cn1c(SCc2ccc(F)cc2)nnc1-c1cnccn1 | 6.44
81 | Cc1[nH]c2ccccc2c1C(=O)COC(=O)C1CC(=O)N(Cc2ccco2)C1 (stereo not drawn) | 4.33
82 | CCOCCn1ccc2c(OCC(=O)Nc3ccccc3F)cccc2c1=O | 8.05
83 | O=C(O)C(Cc1ccc(O)cc1)N1C(=O)c2c(Cl)c(Cl)c(Cl)c(Cl)c2C1=O (stereo not drawn) | -1.88
84 | Cc1[nH]c(=S)sc1Cc1ccc(Cl)c(Cl)c1 | 8.2
85 | COC(=O)c1ccc(C2C(Oc3ccc(OC)cc3)C(=O)N2CCc2ccc(F)cc2)cc1 (stereo not drawn) | 12.3
86 | CSCCCNC(=S)N1CCN(c2ccc(C(C)=O)cc2)CC1 | -0.341
87 | O=C(ONC1=NCCCCC1)c1ccc(Cl)cc1 | 6.97
